Measurements published in PubChem BioAssay AID1508642 (National Center for Advancing Translational Sciences (NCATS), 2021).
In all, about 43,000 compounds went through this assay and about 200 (0.47%) were called active. Another 12% or so got no clear call; they are omitted. Calls come from the whole dose curve; as a rule, active = well fitted cell-killing curve with a large enough effect; inconclusive = small, poorly fitted or top-dose-only effect, or effect the other way; inactive = flat fitted curve, though single readings scatter. The list shows a part of the results.

Assay: Cell viability qHTS assay in S16 Pmp22-F2sN cells; note: nearly all actives have a fitted effect of over 65% in size
Details: S16 Pmp22-F2sN Schwann cells viability, CellTiter-Glo, 24 h; series mostly up to 57.5 µM; activity change, negative = cytotoxicity: at the top concentration
Outline: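 S16 Pmp22-F2sN Schwann cells (500-1,000/well) in phenol-red-free DMEM with 10% FBS received 23 nL compound by pin tool for 24 h at 37 °C. Viability was then read as CellTiter-Glo luminescence after 15 min at room temperature.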
% is set by controls: 0 for no effect and ±100 for the full control effect.

**Q.** Which “activity change, negative = cytotoxicity” value does the source give for `Cc1ccc(NC(=O)c2ccco2)c(OCc2cc(=O)n3cc(C)sc3n2)c1` here?
**A.** inactive: -3.2%

**Q.** For `COc1ccc(-n2c(=O)c3c4c(sc3n(Cc3cc(=O)n5c(C)cccc5n3)c2=O)CCC4)c(OC)c1`, which “activity change, negative = cytotoxicity” value is on record?
**A.** inactive: 3.37%

**Q.** For `CCC1CN(C(=O)NCc2ccc(F)cc2)c2ccccc2O1` (configuration not stated), which “activity change, negative = cytotoxicity” value is on record?
**A.** inactive: 6.39%

**Q.** Which “activity change, negative = cytotoxicity” value does the source give for `Cc1ccc(OCC(=O)Nc2ccc3nc(SCC(=O)N4CCCC4)sc3c2)cc1C` here?
**A.** inactive: 5.49%

**Q.** With `Cc1ccc(Cn2c(=O)c3ccccc3n3c(-c4ccccc4)nnc23)cc1` as the compound, how does the “activity change, negative = cytotoxicity” value read?
**A.** inactive: 16.9%

**Q.** Which “activity change, negative = cytotoxicity” value does the source give for `CCc1ccc(CNC(=O)CSCc2cnn(-c3ccccc3)c2-n2cccc2)cc1` here?
**A.** inactive: 10.9%

**Q.** For `COc1ccc(C2CC(=O)N3CN(C4CCCCC4)CSC3=C2C#N)cc1` (configuration not stated), which “activity change, negative = cytotoxicity” value is on record?
**A.** inactive: 11.6%

**Q.** For `CN(C)c1ccc(CNc2nc(-c3ccco3)nn2C(=O)c2cccc([N+](=O)[O-])c2)cc1`, which “activity change, negative = cytotoxicity” value is on record?
**A.** inactive: 11.1%

**Q.** For `CCCn1c(=O)c2sccc2n2c(CCCC(=O)NCCOC)nnc12`, which “activity change, negative = cytotoxicity” value is on record?
**A.** inactive: 14.5%

**Q.** With `COc1ccccc1NC(=O)CSc1ncc2c(n1)-c1cc(Cl)ccc1N(C)S2(=O)=O` as the compound, how does the “activity change, negative = cytotoxicity” value read?
**A.** inactive: -26.5%

**Q.** For `Cc1nc(N2CCCC2)ncc1C(=O)Nc1ccccc1`, which “activity change, negative = cytotoxicity” value is on record?
**A.** inactive: 0.0583%

**Q.** For `CC(C)CC(=O)Nc1ccc(C(=O)OCc2cc(=O)n3nc(C4CCCCC4)sc3n2)cc1`, which “activity change, negative = cytotoxicity” value is on record?
**A.** inactive: 1.86%

**Q.** Which “activity change, negative = cytotoxicity” value does the source give for `COc1cccc(CN2C(=O)c3ccccc3C2C(=O)NCCc2ccc(OC)c(OC)c2)c1` (configuration not stated) here?
**A.** inactive: 10.7%

**Q.** For `Cc1cc(O)c(C(c2cccc(Cl)c2)N2CCN(c3ccccc3)CC2)c(=O)n1Cc1ccco1` (configuration not stated), which “activity change, negative = cytotoxicity” value is on record?
**A.** inactive: 3.27%

**Q.** Which “activity change, negative = cytotoxicity” value does the source give for `CN(C)c1ccc(CN(CC2CCCO2)C(=O)COc2ccc(Cl)cc2)cc1` (configuration not stated) here?
**A.** inactive: -0.212%

**Q.** For `CCc1ccc(-n2c(C)nc3cc(C(=O)NCCc4ccccc4)ccc32)cc1`, which “activity change, negative = cytotoxicity” value is on record?
**A.** inactive: 0.543%

**Q.** With `COCCCn1c(=N)c(C(=O)NC2CCCC2)cc2c(=O)n3ccccc3nc21` as the compound, how does the “activity change, negative = cytotoxicity” value read?
**A.** inactive: 9.3%

**Q.** With `Cc1ccc(CCNC(=O)CCSCc2ccc(Cl)cc2)cc1` as the compound, how does the “activity change, negative = cytotoxicity” value read?
**A.** inactive: 6.81%

**Q.** For `Cc1ccc(-c2nc3c4cnn(-c5cc(Cl)ccc5Cl)c4ncn3n2)cc1`, which “activity change, negative = cytotoxicity” value is on record?
**A.** inactive: 0.845%

**Q.** With `CC(C)Cc1nn2c(=O)cc(COC(=O)c3ccccc3NC(=O)c3ccccc3)nc2s1` as the compound, how does the “activity change, negative = cytotoxicity” value read?
**A.** inactive: 8.35%

**Q.** With `CC(=O)Nc1ccc(NC(=O)CN2C(=O)CN(C)C(=O)c3ccccc32)cc1` as the compound, how does the “activity change, negative = cytotoxicity” value read?
**A.** inactive: -1.74%

**Q.** For `CCOc1ccc(-n2c(SCc3nc(-c4ccccc4C)no3)nnc2-c2ccccc2)cc1`, which “activity change, negative = cytotoxicity” value is on record?
**A.** inactive: -3.22%

**Q.** Which “activity change, negative = cytotoxicity” value does the source give for `CCCCC12CN3CC(C)(CN(C1)C3c1c(C)[nH]c(=O)[nH]c1=O)C2=O` (configuration not stated) here?
**A.** inactive: 7.07%

**Q.** Which “activity change, negative = cytotoxicity” value does the source give for `COc1ccc(-c2cccc(NS(=O)(=O)c3cc(C)c(Cl)cc3C)c2)nn1` here?
**A.** inactive: -1.95%

**Q.** With `CCN(CCCNC(=O)c1nn(-c2ccc(OC)cc2)c(=O)c2c1c1ccccc1n2C)c1cccc(C)c1` as the compound, how does the “activity change, negative = cytotoxicity” value read?
**A.** inactive: 23.1%

**Q.** Which “activity change, negative = cytotoxicity” value does the source give for `Cc1cccc(Cn2c(C)c(C)c3cc(C(=O)NCc4ccc(C)o4)ccc32)c1` here?
**A.** inactive: -25.7%

**Q.** With `CCOc1ccc(NC(=O)CN2C(=O)C(c3ccccc3)=NC23CCCCCC3)cc1` as the compound, how does the “activity change, negative = cytotoxicity” value read?
**A.** inactive: -8.84%
